The list shows a part of the results.
Tests used:
Assay in all cases: glycan array binding signal (z-score within array); higher = stronger binding
Conditions in all cases: glycan notation: IUPAC condensed, linker removed
[1] = biological target: GlcNAc(b1-3)Gal(b1-4)GlcNAc(b1-3)Gal(b1-4)GlcNAc(b1-2)Man(a1-3)[GlcNAc(b1-3)Gal(b1-4)GlcNAc(b1-3)Gal(b1-4)GlcNAc(b1-2)Man(a1-6)]Man(b1-4)GlcNAc(b1-4)[Fuc(a1-6)]GlcNAc
Procedure, shortened: (§1)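 Negative Z-scores can be read as non-binding. The Z-score is calculated within each array and then averaged across arrays of one protein sequence at different concentrations or buffers and across linkers. Arrays, 3228 in all, were curated from the Consortium for Functional Glycomics database and kept only where the protein sequence was available.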

[2] = biological target: GlcNAc(b1-3)Gal(b1-4)GlcNAc(b1-3)Gal(b1-4)GlcNAc(b1-2)[GlcNAc(b1-3)Gal(b1-4)GlcNAc(b1-3)Gal(b1-4)GlcNAc(b1-6)]Man(a1-6)[GlcNAc(b1-3)Gal(b1-4)GlcNAc(b1-3)Gal(b1-4)GlcNAc(b1-2)Man(a1-3)]Man(b1-4)GlcNAc(b1-4)[Fuc(a1-6)]GlcNAc
Procedure, shortened: as §1

[3] = biological target: GlcNAc(b1-3)Gal(b1-4)GlcNAc(b1-3)Gal(b1-4)GlcNAc(b1-3)Gal(b1-4)GlcNAc(b1-2)Man(a1-3)[GlcNAc(b1-3)Gal(b1-4)GlcNAc(b1-3)Gal(b1-4)GlcNAc(b1-3)Gal(b1-4)GlcNAc(b1-2)Man(a1-6)]Man(b1-4)GlcNAc(b1-4)GlcNAc
Procedure, shortened: as §1

[4] = biological target: GlcNAc(b1-3)Gal(b1-4)GlcNAc(b1-3)Gal(b1-4)GlcNAc(b1-3)Gal(b1-4)GlcNAc(b1-2)Man(a1-3)[GlcNAc(b1-3)Gal(b1-4)GlcNAc(b1-3)Gal(b1-4)GlcNAc(b1-3)Gal(b1-4)GlcNAc(b1-2)Man(a1-6)]Man(b1-4)GlcNAc(b1-4)[Fuc(a1-6)]GlcNAc
Procedure, shortened: as §1

[5] = biological target: GlcNAc(b1-3)Gal(b1-4)GlcNAc(b1-3)Gal(b1-4)GlcNAc(b1-3)Gal(b1-4)GlcNAc(b1-2)[GlcNAc(b1-3)Gal(b1-4)GlcNAc(b1-3)Gal(b1-4)GlcNAc(b1-3)Gal(b1-4)GlcNAc(b1-6)]Man(a1-6)[GlcNAc(b1-3)Gal(b1-4)GlcNAc(b1-3)Gal(b1-4)GlcNAc(b1-3)Gal(b1-4)GlcNAc(b1-2)Man(a1-3)]Man(b1-4)GlcNAc(b1-4)[Fuc(a1-6)]GlcNAc
Procedure, shortened: as §1

[6] = biological target: GlcNAc(b1-3)Gal(b1-4)GlcNAc(b1-3)Gal(b1-4)GlcNAc(b1-3)Gal(b1-4)GlcNAc(b1-3)Gal(b1-4)GlcNAc(b1-2)Man(a1-3)[GlcNAc(b1-3)Gal(b1-4)GlcNAc(b1-3)Gal(b1-4)GlcNAc(b1-3)Gal(b1-4)GlcNAc(b1-3)Gal(b1-4)GlcNAc(b1-2)Man(a1-6)]Man(b1-4)GlcNAc(b1-4)GlcNAc
Procedure, shortened: as §1

[7] = biological target: GlcNAc(b1-3)Gal(b1-4)GlcNAc(b1-3)Gal(b1-4)GlcNAc(b1-3)Gal(b1-4)GlcNAc(b1-3)Gal(b1-4)GlcNAc(b1-2)Man(a1-3)[GlcNAc(b1-3)Gal(b1-4)GlcNAc(b1-3)Gal(b1-4)GlcNAc(b1-3)Gal(b1-4)GlcNAc(b1-3)Gal(b1-4)GlcNAc(b1-2)Man(a1-6)]Man(b1-4)GlcNAc(b1-4)[Fuc(a1-6)]GlcNAc
Procedure, shortened: as §1

[8] = biological target: GlcNAc(b1-3)Gal(b1-4)GlcNAc(b1-3)Gal(b1-4)GlcNAc(b1-3)Gal(b1-4)GlcNAc(b1-3)Gal(b1-4)GlcNAc(b1-2)[GlcNAc(b1-3)Gal(b1-4)GlcNAc(b1-3)Gal(b1-4)GlcNAc(b1-3)Gal(b1-4)GlcNAc(b1-3)Gal(b1-4)GlcNAc(b1-6)]Man(a1-6)[GlcNAc(b1-3)Gal(b1-4)GlcNAc(b1-3)Gal(b1-4)GlcNAc(b1-3)Gal(b1-4)GlcNAc(b1-3)Gal(b1-4)GlcNAc(b1-2)Man(a1-3)]Man(b1-4)GlcNAc(b1-4)[Fuc(a1-6)]GlcNAc
Procedure, shortened: as §1

[9] = biological target: GlcNAc(b1-3)Gal(b1-4)GlcNAc(b1-3)Gal(b1-4)GlcNAc(b1-3)GalNAc
Procedure, shortened: as §1

[10] = biological target: GlcNAc(b1-3)Gal(b1-4)GlcNAc(b1-3)GalNAc
Procedure, shortened: as §1

[11] = biological target: GlcNAc(b1-3)Gal(b1-4)GlcNAc(b1-3)[GlcNAc(b1-3)Gal(b1-4)GlcNAc(b1-3)]GalNAc
Procedure, shortened: as §1

[12] = biological target: GlcNAc(b1-3)Gal(b1-4)GlcNAc(b1-6)[Gal(b1-3)]GalNAc
Procedure, shortened: as §1

[13] = biological target: GlcNAc(b1-3)Gal(b1-4)GlcNAc(b1-6)[GlcNAc(b1-3)Gal(b1-3)]GalNAc
Procedure, shortened: as §1

[14] = biological target: GlcNAc(b1-3)Gal(b1-4)GlcNAc(b1-6)[GlcNAc(b1-3)]Gal(b1-4)GlcNAc
Procedure, shortened: as §1

GlcNAc(b1-3)GalNAc = biological target: GlcNAc(b1-3)GalNAc
Procedure, shortened: as §1

GlcNAc(b1-3)Man = biological target: GlcNAc(b1-3)Man
Procedure, shortened: as §1

[15] = biological target: GlcNAc(b1-3)[GlcNAc(b1-4)][GlcNAc(b1-6)]GlcNAc
Procedure, shortened: as §1

[16] = biological target: GlcNAc(b1-3)[GlcNAc(b1-6)]Gal(b1-4)GlcNAc
Procedure, shortened: as §1

[17] = biological target: GlcNAc(b1-3)[GlcNAc(b1-6)]GalNAc
Procedure, shortened: as §1

[18] = biological target: GlcNAc(b1-3)[GlcNAc(b1-6)]GlcNAc(b1-4)GlcNAc
Procedure, shortened: as §1

[19] = biological target: GlcNAc(b1-4)Gal(b1-4)GlcNAc
Procedure, shortened: as §1

GlcNAc(b1-4)GlcNAc = biological target: GlcNAc(b1-4)GlcNAc
Procedure, shortened: as §1

[20] = biological target: GlcNAc(b1-4)GlcNAc(b1-4)GlcNAc
Procedure, shortened: as §1

[21] = biological target: GlcNAc(b1-4)GlcNAc(b1-4)GlcNAc(b1-4)GlcNAc(b1-4)GlcNAc
Procedure, shortened: as §1

[22] = biological target: GlcNAc(b1-4)GlcNAc(b1-4)GlcNAc(b1-4)GlcNAc(b1-4)GlcNAc(b1-4)GlcNAc
Procedure, shortened: as §1

[23] = biological target: GlcNAc(b1-4)[GlcNAc(b1-6)]GalNAc
Procedure, shortened: as §1

[24] = biological target: GlcNAc(b1-6)Gal(b1-4)GlcNAc
Procedure, shortened: as §1

GlcNAc(b1-6)GalNAc = biological target: GlcNAc(b1-6)GalNAc
Procedure, shortened: as §1

[25] = biological target: GlcNAc6S(b1-3)Gal(b1-4)GlcNAc
Procedure, shortened: as §1

Kdn(a2-3)Gal(b1-3)GalNAc = biological target: Kdn(a2-3)Gal(b1-3)GalNAc
Procedure, shortened: as §1

Kdn(a2-3)Gal(b1-3)GlcNAc = biological target: Kdn(a2-3)Gal(b1-3)GlcNAc
Procedure, shortened: as §1

Kdn(a2-3)Gal(b1-4)Glc = biological target: Kdn(a2-3)Gal(b1-4)Glc
Procedure, shortened: as §1

Kdn(a2-3)Gal(b1-4)GlcNAc = biological target: Kdn(a2-3)Gal(b1-4)GlcNAc
Procedure, shortened: as §1

[26] = biological target: Kdn(a2-3)Gal(b1-4)[Fuc(a1-3)]GlcNAc
Procedure, shortened: as §1

Kdn(a2-6)Gal(b1-4)GlcNAc = biological target: Kdn(a2-6)Gal(b1-4)GlcNAc
Procedure, shortened: as §1

[27] = biological target: Man(a1-2)Man(a1-2)Man(a1-3)Man
Procedure, shortened: as §1

[28] = biological target: Man(a1-2)Man(a1-2)Man(a1-6)[Man(a1-3)]Man
Procedure, shortened: as §1

Man(a1-2)Man(a1-3)Man = biological target: Man(a1-2)Man(a1-3)Man
Procedure, shortened: as §1

[29] = biological target: Man(a1-2)Man(a1-3)[Man(a1-2)Man(a1-6)]Man
Procedure, shortened: as §1

[30] = biological target: Man(a1-2)Man(a1-3)[Man(a1-2)Man(a1-6)]Man(a1-6)[Man(a1-2)Man(a1-2)Man(a1-3)]Man
Procedure, shortened: as §1

[31] = biological target: Man(a1-2)Man(a1-3)[Man(a1-2)Man(a1-6)]Man(a1-6)[Man(a1-2)Man(a1-2)Man(a1-3)]Man(b1-4)GlcNAc(b1-4)GlcNAc
Procedure, shortened: as §1

[32] = biological target: Man(a1-2)Man(a1-3)[Man(a1-6)]Man(a1-6)[Man(a1-2)Man(a1-3)]Man(b1-4)GlcNAc(b1-4)GlcNAc
Procedure, shortened: as §1

[33] = biological target: Man(a1-2)Man(a1-6)[Man(a1-3)]Man(a1-6)[Man(a1-2)Man(a1-2)Man(a1-3)]Man
Procedure, shortened: as §1

[34] = biological target: Man(a1-2)Man(a1-6)[Man(a1-3)]Man(a1-6)[Man(a1-2)Man(a1-2)Man(a1-3)]Man(b1-4)GlcNAc(b1-4)GlcNAc
Procedure, shortened: as §1

Man(a1-3)[Man(a1-6)]Man = biological target: Man(a1-3)[Man(a1-6)]Man
Procedure, shortened: as §1

B1: ECA (Erythrina cristagalli), P83410 (protein)
chain: VETISFSFSEFEPGNDNLTLQGAALITQSGVLQLTKINQNGMPAWDSTGRTLYTKPVHMWDSTTGTVASFETRFSFSIEQPYTRPLPADGLVFFMGPTKSKPAQGYGYLGVFNNSKQDNSYQTLAVEFDTFSNPWDPPQVPHIGIDVNSIRSIKTQPFQLDNGQVANVVIKYDAPSKILHVVLVYPSSGAIYTIAEIVDVKQVLPDWVDVGLSGATGAQRDAAETHDVYSWSFQASLPE
- glycan array binding signal (z-score) [1]: 0.46
- glycan array binding signal (z-score) [2]: 3.4
- glycan array binding signal (z-score) [3]: 0.782
- glycan array binding signal (z-score) [4]: 1.03
- glycan array binding signal (z-score) [5]: 2.63
- glycan array binding signal (z-score) [6]: 0.245
- glycan array binding signal (z-score) [7]: 0.151
- glycan array binding signal (z-score) [8]: 3.16
- glycan array binding signal (z-score) [9]: -0.339
- glycan array binding signal (z-score) [10]: -0.407
- glycan array binding signal (z-score) [11]: 1.12
- glycan array binding signal (z-score) [12]: -0.412
- glycan array binding signal (z-score) [13]: -0.377
- glycan array binding signal (z-score) [14]: -0.53
- glycan array binding signal (z-score) (GlcNAc(b1-3)GalNAc): -0.366
- glycan array binding signal (z-score) (GlcNAc(b1-3)Man): -0.061
- glycan array binding signal (z-score) [15]: -0.249
- glycan array binding signal (z-score) [16]: -0.297
- glycan array binding signal (z-score) [17]: -0.244
- glycan array binding signal (z-score) [18]: -0.277
- glycan array binding signal (z-score) [19]: -0.336
- glycan array binding signal (z-score) (GlcNAc(b1-4)GlcNAc): -0.307
- glycan array binding signal (z-score) [20]: -0.262
- glycan array binding signal (z-score) [21]: -0.356
- glycan array binding signal (z-score) [22]: -0.31
- glycan array binding signal (z-score) [23]: -0.228
- glycan array binding signal (z-score) [24]: -0.283
- glycan array binding signal (z-score) (GlcNAc(b1-6)GalNAc): -0.317
- glycan array binding signal (z-score) [25]: -0.243
- glycan array binding signal (z-score) (Kdn(a2-3)Gal(b1-3)GalNAc): -0.084
- glycan array binding signal (z-score) (Kdn(a2-3)Gal(b1-3)GlcNAc): -0.278
- glycan array binding signal (z-score) (Kdn(a2-3)Gal(b1-4)Glc): -0.348
- glycan array binding signal (z-score) (Kdn(a2-3)Gal(b1-4)GlcNAc): -0.25
- glycan array binding signal (z-score) [26]: -0.341
- glycan array binding signal (z-score) (Kdn(a2-6)Gal(b1-4)GlcNAc): -0.153
- glycan array binding signal (z-score) [27]: -0.285
- glycan array binding signal (z-score) [28]: -0.248
- glycan array binding signal (z-score) (Man(a1-2)Man(a1-3)Man): -0.285
- glycan array binding signal (z-score) [29]: -0.318
- glycan array binding signal (z-score) [30]: -0.091
- glycan array binding signal (z-score) [31]: 0.038
- glycan array binding signal (z-score) [32]: -0.277
- glycan array binding signal (z-score) [33]: -0.187
- glycan array binding signal (z-score) [34]: -0.417
- glycan array binding signal (z-score) (Man(a1-3)[Man(a1-6)]Man): -0.174
